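Each compound was tested at five concentrations against cells in 96-well plates for 48 hours. GI50 = concentration required for 50% inhibition of growth. TGI: total growth inhibition.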

The test deals with NCI-H322M lung. Nature of the test: DTP human tumour cell line panel, 48 h.
On to `COc1ccc(-c2nc3ccc(-c4nnc(SCC(=O)Nc5ccc(/C(C)=N\O)cc5)o4)cc3[nH]2)cc1`, for which the GI50 is 7.54 µM and the TGI stood at 20.9 µM.

With `C=C1CC[C@@H]2[C@]3(C)COC(c4cn(-c5ccccc5)nc4-c4cccc([N+](=O)[O-])c4)O[C@@H]3CC[C@@]2(C)[C@@H]1C/C=C1/C(=O)OC[C@H]1O` (stereo not given in full), the GI50 was 17.6 µM and the TGI is more than 100 µM.

Turning to `COc1ccc(C(=O)/C=C/c2ccc(Cl)c(C(F)(F)F)c2)cc1S(N)(=O)=O`, the GI50 is 1.77 µM and the TGI was 6.52 µM.

On to `O=C(Nc1nc2ccc([N+](=O)[O-])cc2s1)Nc1cc(Cl)ccc1I`, for which the GI50 was 5.06 µM and the total growth inhibition concentration (TGI) turned out to be 17.7 µM.

`COC(=O)CCn1c(-c2ccc(-n3cc(-c4ccc(O[C@H]5O[C@@H]6OC7(C)CC[C@H]8[C@H](C)CC[C@@H]([C@H]5C)[C@@]68OO7)cc4)nn3)cc2)nc2ccccc21`: the GI50 is 0.436 µM and the TGI was more than 9.25 µM.

The term GI50 denotes the concentration that inhibits growth by half. The TGI is the concentration at which net growth stops. A high value points to less potent growth arrest.

Source of the values: PubChem BioAssay (NCI).
